From PubChem BioAssay AID463173 (ICCB-Longwood Screening Facility, Harvard Medical School, 2010)
The whole screen tested about 52,000 compounds, of which about 4,300 (8.3%) were called active. Cut-off read from the data, not from the text of the source: active = survival mostly below about 52% (no sharp cut-off); inactive = mostly above about 56%. This is one part of the list.

tested on: DeltatarO mutant; test: S. aureus survival, RN4220 and DeltatarO strains – OD600, teichoic acid synthesis inhibitors, primary screen (AID 463173); details: S. aureus RN4220 wild type/DeltatarO growth, OD600, 18 h, active compounds read low, screened at 18.75 µg/mL (by protocol)

Compound	survival
O=C(CCC(=O)N1CC2CCCN2c2ccccc21)NCc1ccccc1 (configuration not stated)	inactive: 74%
CCOC(=O)c1ccc(NC(=O)C2=C(C)Nc3nc(SCc4ccc(Cl)cc4)nn3C2c2ccc(C)cc2)cc1 (configuration not stated)	inactive: 77%
CCCCOc1ccc(C(=O)N2CCC(c3nc4ccccc4o3)CC2)cc1	inactive: 71%
CCOc1ccc(CC(=O)NCCc2csc(-c3ccc(C(F)(F)F)cc3)n2)cc1	inactive: 77%
Cc1nn(-c2ccccc2)c(=O)c2ccccc12	inactive: 92%
Cc1nn(C(=O)COc2ccccc2)c(C)c1Sc1ccccc1	inactive: 115%
O=C(c1ccc2c(c1)N(Cc1ccc(Cl)cc1)C(=O)c1ccccc1S2=O)N1CCN(c2ccccc2F)CC1 (configuration not stated)	inactive: 85%
O=C(O)c1cccc2cc[nH]c12	inactive: 101%
CSc1cccc(NC(=O)C2CCN(c3ncnc4c3nc3n4CCCCC3)CC2)c1	inactive: 97%
CCOc1ccccc1NC(=O)C(NS(=O)(=O)c1ccc2c(c1)CCC(=O)N2)c1ccccc1 (configuration not stated)	inactive: 94%
O=C(NC1CCCCCC1)c1cc2c(Cl)nc3ccccc3c2s1	inactive: 116%
CC(C)NC(=O)CC(=O)Nc1ccc2nc3n(c(=O)c2c1)CCCCC3	inactive: 72%
COc1ccc(NC(=O)c2ccc3c(SCC(=O)O)c4c(nc3c2)CCCC4)c(OC)c1	inactive: 55%
O=C(NCCCN1CCN(c2ccc(F)cc2)CC1)c1cnn(-c2ccc(F)cc2)c1-n1cccc1	inactive: 70%
CCc1ccc(NC(=O)CSc2ccc(-c3ccccn3)nn2)cc1	inactive: 114%
O=C(CN1C(=O)COc2ccc(S(=O)(=O)N3CCOCC3)cc21)N1CCN(c2cccc(Cl)c2)CC1	inactive: 74%
Cc1cccc(-c2nc3c4ccccc4n(Cc4cccc(Cl)c4)c(=O)n3n2)c1	inactive: 97%
COc1ccc(C(NC(C)=O)c2ccc(OC)cc2)cc1	inactive: 77%
CC1CCN(CCC(=O)Nc2ccc(Br)cc2)CC1	inactive: 102%
CCCCS(=O)(=O)CC(O)CSc1nc(-c2ccc(C)cc2)cc(-c2ccccc2)c1C#N (configuration not stated)	inactive: 68%
COc1cccc(C(=O)Nc2cccc(-c3cn4ccsc4n3)c2)c1OC	inactive: 77%
CCOC(=O)/C(C#N)=C/c1ccc(-c2ccc(Br)cc2)o1	inactive: 81%

Compound	survival
Cc1ccccc1-c1noc(-c2cccnc2N2CCN(c3ccccc3)CC2)n1	inactive: 102%
CCOC(=O)c1ccc(NC(=O)CCn2c(=O)c3cccn3c3cccnc32)cc1	inactive: 69%
O=C(Nc1ccc(F)cc1F)c1cc(-c2ccc(Cl)cc2)on1	inactive: 76%
CCc1cccc(NS(=O)(=O)c2ccc(-n3cccn3)cc2)c1	inactive: 101%
CCN(CC)C(=O)Cn1c(=O)n(-c2ccc(C)c(C)c2)c(=O)c2c3c(sc21)CCCCC3	inactive: 95%
Cc1ccc(C)c(N2CCN(C(=O)CCc3nnc4n(CC(C)C)c(=O)c5ccccc5n34)CC2)c1	inactive: 91%
Cc1ccc(CN2CCc3nc(Nc4ccc5c(c4)OCCO5)ncc3C2)cc1	inactive: 89%
CCS(=O)(=O)N1CCc2cc(C(=O)Nc3ccc(C(=O)OC)cc3)ccc21	inactive: 49%
CCn1cc(C(=O)N2CCN(c3cccc(Cl)c3)CC2)c2cc(OC)c(OC)cc2c1=O	inactive: 54%
CC1=C(c2ccc(C(C)C)cc2)S(=O)(=O)NC1=NCCCN1CCN(c2ccccc2F)CC1	inactive: 82%
C#CCSc1nc(-c2ccccc2)cc(-c2ccccc2)c1C#N	active: 40%
Cc1ccc(-n2c3c(cc(-c4nc(-c5ccc(Cl)cc5)cs4)c2=O)C(=O)CC(C)(C)C3)cc1C	inactive: 74%
Cc1ccccc1C(=O)Nc1ccc(-c2nc3ccccc3o2)cc1	inactive: 101%
O=S(=O)(c1ccc(-c2cc(C(F)(F)F)on2)s1)N1CCN(c2ccc(F)cc2)CC1	inactive: 119%
Cc1cc(Br)ccc1NC(=O)Cn1cc(S(=O)(=O)N2CCN(c3ccccc3F)CC2)c2ccccc2c1=O	inactive: 88%
COc1ccc(NC(=O)C2CCCN(c3ncnc4c3nc3n4CCCCC3)C2)c(OC)c1 (configuration not stated)	inactive: 91%
CCN1c2ccccc2-c2nc(SCC(=O)NCc3ccccc3)ncc2S1(=O)=O	inactive: 93%
COC(=O)CCNC(=O)NC(CCC(C)C)c1c(-n2cccc2)sc2c1CCN(C)C2 (configuration not stated)	inactive: 75%
CCC(=O)N1CCc2cc(S(=O)(=O)NCCC(=O)Nc3cc(C)ccc3OC)ccc21	inactive: 125%
COc1ccccc1NC(=O)Cn1c(=O)n(CCC(=O)NCC2CCCO2)c(=O)c2cc(OC)c(OC)cc21 (configuration not stated)	inactive: 135%
COc1ccccc1-c1cc2nc(C)c(CCC(=O)O)c(C)n2n1	inactive: 88%
CCCc1cc(=O)[nH]c(SCC(=O)N2CCN(c3ccccc3OC)CC2)n1	inactive: 77%

Compound	survival
CCCN(CCC)C(=O)Cn1c(=O)n(-c2ccc(Cl)cc2)c(=O)c2c3c(sc21)CCCCC3	inactive: 80%
Cc1ccc(-c2nn(-c3ccc(F)cc3)c3c2cnc2cc(F)c(F)cc23)cc1	inactive: 82%
Cc1cc(=O)oc2c3c(ccc12)OCC3=O	inactive: 98%
CC(=O)c1ccc(Nc2nc3c(S(=O)(=O)c4ccccc4)nnn3c3ccc(Cl)cc23)cc1	inactive: 68%
Cc1ccc(NC(=O)Cn2c(=O)c3ccccc3n3nncc23)cc1	inactive: 114%
N=C1CNc2ccccc2C(=O)O1	inactive: 96%
Cc1ccc(C)c(S(=O)(=O)c2nnn3c2nc(Nc2ccc(C)c(C)c2)c2ccccc23)c1	inactive: 132%
COc1cccc(CN(Cc2ccco2)C(c2ccc(OC)c(OC)c2)c2nnnn2Cc2ccccc2)c1 (configuration not stated)	inactive: 67%
Cc1ccc(CCNC(=O)c2c[nH]c3ccc(S(=O)(=O)Nc4ccc(C)cc4C)cc3c2=O)cc1	inactive: 104%
COc1cccc(NC(=O)CCN2CCN(c3ccccc3)CC2)c1	inactive: 62%
COc1cccc(C(=O)NCC(c2ccc(N(C)C)cc2)N2CCc3ccccc32)c1 (configuration not stated)	inactive: 144%
COc1ccc(-c2nnn(CC(=O)N(CC3CCCO3)C(C(=O)NC3CCCCC3)c3cccs3)n2)cc1 (configuration not stated)	inactive: 87%
Cc1nn(-c2ccc(N3CCCCC3)nn2)c(C)c1CCC(=O)NCc1ccc(OC(C)C)cc1	inactive: 82%
CC(=O)c1cccc(Nc2nc(-c3cccc(C)c3)nc3ccccc23)c1	active: 4%
Cc1ccc(NC(=O)Cn2cc(S(=O)(=O)N3CCCC3)c(S(=O)(=O)N3CCCC3)c2)cc1F	inactive: 113%
Cc1ccc(S(=O)(=O)c2c(Nc3cc(C)ccc3C)sc(C(=O)c3ccc4c(c3)OCO4)c2N)cc1	inactive: 129%
CC(=O)c1c(C)oc2ccc(N(C(=O)Oc3ccccc3)S(=O)(=O)c3ccccc3)cc12	inactive: 60%
CC1CCCN(c2c(S(=O)(=O)c3ccccc3)cnc3ccc(Cl)cc23)C1 (configuration not stated)	inactive: 136%
CC(CNC(=O)c1cc(-c2ccccc2)n[nH]1)c1ccccc1 (configuration not stated)	inactive: 71%
CCCS(=O)(=O)N1CCN(S(=O)(=O)c2ccccc2)CC1	inactive: 81%
CCS(=O)(=O)N1CC(=O)N(c2cc(C)ccc2C)C(C)(C(=O)NC2CCCCC2)C1 (configuration not stated)	inactive: 72%
Cc1ccc(Cl)cc1NC(=O)N1CCC2(CC1)Oc1ccccc1C(=O)N2Cc1ccccc1F	inactive: 116%

Compound	survival
COc1ccc(-n2nnc(-c3nsc(NC(=O)c4cccs4)n3)c2C)cc1OC	inactive: 92%
Cc1ccccc1CN(Cc1ccco1)C(=O)c1cc2ccccc2oc1=O	active: 44%
Cc1cccc(NC(=O)C(=O)NCCc2sc(-c3ccccc3)nc2C)c1C	inactive: 79%
CCOC(=O)CN1C(=O)C(C)(C)Oc2ccc(C(=O)NC(C)C)cc21	inactive: 92%
Cc1c(Cl)cccc1NC(=O)C(CCS(C)(=O)=O)N1Cc2ccccc2C1=O (configuration not stated)	inactive: 68%
COc1ccc(-c2cn3c(n2)sc2cc(C(=O)NC4CCCCCC4)ccc23)cc1	inactive: 73%
COc1cccc(NC(=O)c2sc3nc(C)c(C(=O)Nc4ccc(Cl)cc4)c(-c4ccc(Br)cc4)c3c2N)c1	inactive: 114%
O=C(CSc1n[nH]c(-c2ccccc2)n1)N1CCN(c2ccccc2F)CC1	inactive: 120%
CCN1/C(=C\C=C2C(=O)OC(C)(C)OC2=O)Sc2ccccc21	inactive: 96%
COc1ccc2c(CNCc3ccccc3OC)c(C(=O)O)n(Cc3ccc(F)cc3Cl)c2c1	inactive: 99%
CCc1ccc(NC(=O)C2CCC(CNS(=O)(=O)c3ccc4c(c3)C(C)(C)C(=O)N4C)CC2)cc1 (configuration not stated)	inactive: 45%
Cc1cccc(NC(=O)c2sc3nc(-c4ccccc4)cn3c2C)c1C	inactive: 98%
Nc1cc(=O)nc(SCC(=O)Nc2ccc(F)cc2)n1-c1cccc(Cl)c1	inactive: 145%
Cc1cccc(N2CCN(C(=O)c3c(C)oc4ncnc(N5CCOCC5)c34)CC2)c1C	inactive: 88%
COc1ccc(C)cc1NC(=O)c1cc(S(=O)(=O)N2CCC(C)CC2)cn1C	inactive: 73%
COc1ccc(CCN2C(=O)N(c3ccc(C)cc3)C(=O)C2CC(=O)Nc2ccc(F)cc2)cc1 (configuration not stated)	inactive: 53%
Cc1nn(C(=O)COc2ccccc2Br)c(C)c1Sc1ccccc1	inactive: 54%
COc1ccc(CN2C(=O)N(c3ccc(F)cc3)C(=O)C2CC(=O)Nc2cc(OC)cc(OC)c2)cc1 (configuration not stated)	inactive: 81%
CCc1ccc(NC(=O)C(NS(=O)(=O)c2cccc3nsnc23)c2ccccc2)cc1 (configuration not stated)	inactive: 68%
O=C(Cn1c(CC(=O)N2CCCC2)nc2ccccc21)NCc1ccccc1	active: 64%
CCOC(=O)C1=C(C)NC(=O)NC1c1cn(-c2ccccc2)nc1-c1ccc(OC(C)C)cc1 (configuration not stated)	inactive: 44%
